{
  "source": "paper PMC8232828",
  "about": "(Nature methods, 2021)",
  "biological_target": "the molecule itself",
  "assay": "PIE-FCCS",
  "data": [
    {"protein": "amino-terminally SNAPf-tagged secretin receptor (receptor, UniProt P47872 23-440, looked up, SNAPf tag covalently labeled with LD555p-BG (donor) or LD655-BG (acceptor); for PIE-FCCS with ATTO488-BG or DY549P1-BG) HSTGALPRLCDVLQVLWEEQDQCLQELSREQTGDLGTEQPVPGCEGMWDNISCWPSSVPGRMVEVECPRFLRMLTSRNGSLFRNCTQDGWSETFPRPNLACGVNVNDSSNEKRHSYLLKLKVMYTVGYSSSLVMLLVALGILCAFRRLHCTRNYIHMHLFVSFILRALSNFIKDAVLFSSDDVTYCDAHRAGCKLVMVLFQYCIMANYSWLLVEGLYLHTLLAISFFSERKYLQGFVAFGWGSPAIFVALWAIARHFLEDVGCWDINANASIWWIIRGPVILSILINFILFINILRILMRKLRTQETRGNEVSHYKRLARSTLLLIPLFGIHYIVFAFSPEDAMEIQLFFELALGSFQGLVVAVLYCFLNGEVQLEVQKKWQQWHLREFPLHPVASFSNSTKASHLEQSQGTCRTSII", "values": [
      {"measurement": "stoichiometry N", "value": 2}
    ]}
  ]
}
